Laboratory results published in PubChem BioAssay AID1240 (Sanford-Burnham Center for Chemical Genomics, 2008).
The whole screen tested about 50,000 compounds, of which about 800 (1.6%) showed an effect of 50% or more. Some of the results follow.

Each compound was assayed against Bcl-2-like protein 10 (Homo sapiens) (UniProt Q9HD36) (assay: TR3 peptide-Bcl-B binding displacers, biochemical primary FP assay, phenotype converters (AID 1240;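 also: 0% = Bcl-B with tracer peptide and DMSO and 100% = tracer peptide lacking Bcl-B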)). Conditions: GST-Bcl-B / FITC-TR3 peptide fluorescence polarization; stronger effect = higher value; compound at 3.75 mg/L.
Chain of UniProt Q9HD36 (Q9HD36 whole entry, looked up): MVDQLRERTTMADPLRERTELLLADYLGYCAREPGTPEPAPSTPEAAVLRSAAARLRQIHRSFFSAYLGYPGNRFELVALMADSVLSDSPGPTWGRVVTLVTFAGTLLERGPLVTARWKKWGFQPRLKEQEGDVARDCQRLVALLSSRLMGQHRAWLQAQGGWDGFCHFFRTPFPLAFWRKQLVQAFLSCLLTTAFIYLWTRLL
`Cc1ccc(C(=O)NCCCNc2ccc([N+](=O)[O-])cc2Cl)cc1` showed a displacement of 15.2%.
With `COc1ccc(C2/C(=C(\O)c3ccccc3)C(=O)C(=O)N2CCN(C)C)cc1OC` (stereo unspecified) the displacement was -14.8%.
`O=C1OC(c2ccccc2)=N/C1=C\c1c(Cl)cccc1Cl` gave a displacement of 8.2%.
For `COc1cc(CN2CCN(S(=O)(=O)c3ccc(Cl)cc3)CC2)cc(OC)c1O`, the displacement was -9.1%.
`O=S(=O)(N=Nc1c(O)[nH]c2ccc(Br)cc12)c1ccc(Cl)cc1` gave a displacement of 4%.
`C/C(=C\c1ccc(Cl)cc1)C(=O)c1c(C)cc(C)[nH]c1=O` showed a displacement of -1.3%.
In the case of `CC(NS(=O)(=O)c1ccccc1)C1COc2ccccc2O1` (stereo unspecified), the displacement is reported as -9.1%.
In the case of `Cc1ccc(OCC(=O)Nc2ccc(C)cc2Br)c(C)c1`, the displacement is reported as 2.5%.
In the case of `CCN(CC)CCNC(=O)C12CC3CC(CC(C3)C1)C2`, the displacement is reported as -7.3%.
`O=C(CCN1C(=O)c2cccc([N+](=O)[O-])c2C1=O)Nc1nccs1` was tested, and the displacement was -6.5%.
Compound `Cc1cccc(C)c1NC(=O)CSCC(=O)Nc1ccccc1` has a displacement of 9.9%.
With `Cc1cccc(N2C(=O)NC(=O)/C(=C/c3cc4c(cc3Br)OCO4)C2=O)c1` the displacement was -0.9%.
With `Cn1c(/C=C/c2cn(Cc3ccccc3)c3ccccc23)nc2ccccc2c1=O` the displacement was 17.3%.
In the case of `COc1ccc(C(=O)Nc2cccc3ccccc23)cc1Br`, the displacement is reported as 3.3%.
`COc1ccc2ccccc2c1/C=N/c1oc(C)c(C)c1C#N` gave a displacement of 6.5%.
With `COc1ccccc1Nc1nc(-c2ccc(C)cc2)cs1` the displacement was 9.4%.
Compound `CCOC(=O)N1N=C(C)CC1(O)c1ccccc1` (stereo unspecified) has a displacement of -0.7%.
`O=C(NCc1ccc2c(c1)OCO2)c1ccc(S(=O)(=O)N2CCCCCC2)cc1` gave a displacement of 0.1%.
In the case of `O=C(COc1ccc2ccccc2c1)Nc1cccc(Cl)c1Cl`, the displacement is reported as -7.3%.
Compound `COC(=O)c1c(-c2ccccc2Cl)csc1NC(=O)/C=C/C(=O)O` has a displacement of -12.6%.
`COc1ccc(N(CC(=O)Nc2ccc(Br)cc2)S(=O)(=O)c2ccc(OC)c(OC)c2)cc1` gave a displacement of 9.4%.
Compound `O=C(CSC(=S)N1CCSCC1)c1ccc([N+](=O)[O-])cc1` has a displacement of -9.3%.
`O=C(CC1c2ccccc2Oc2ccccc21)Nc1ccc(Cc2ccncc2)cc1` gave a displacement of -7.7%.
With `CC1(C)CC(NC(=O)c2ccccc2Br)CC(C)(C)N1` the displacement was 2.2%.
For `Cc1ccc(N(CC(=O)O)S(=O)(=O)c2ccccc2)cc1Cl`, the displacement was 15%.
`COC(=O)C1=C(C)NC(=S)NC1c1ccc(OCC(=O)N2CCOCC2)c(OC)c1` (stereo unspecified) gave a displacement of 36.8%.
`Cc1cc(C)cc(N2C(=O)NC(=O)/C(=C\c3ccc(O)c(Br)c3)C2=O)c1` showed a displacement of 12.3%.
With `Cc1ccnc(NS(=O)(=O)c2ccc(F)cc2)c1` the displacement was 0.4%.
`CCN(CC)c1ccc(NC(=O)c2cccc(Cl)c2Cl)cc1` was tested, and the displacement was 10.7%.
In the case of `COc1ccc(/C(N)=N/OC(=O)c2cccc([N+](=O)[O-])c2C)cc1OC`, the displacement is reported as 11.4%.
`N#CC1CC(c2ccccc2)=NN1c1ccccc1` (stereo unspecified) showed a displacement of 11.4%.
Compound `Cc1nc2ccc(Cl)cc2c(-c2ccccc2)c1C(=O)O` has a displacement of -1.4%.
With `N#Cc1c(N)nc2c(c1-c1ccc(Br)s1)CCCCCC2` the displacement was -2.3%.
Work on `CC(=O)CCc1oc2ccccc2c1-c1ccccc1` yielded a displacement of -1.1%.
`O=C(Cc1ccccc1)Nc1ccc(-c2ccccc2)cc1[N+](=O)[O-]` was tested, and the displacement was -5.9%.
Compound `Nc1nonc1-c1nc2ccccc2n1Cc1ccc(Cl)cc1` has a displacement of -3.4%.
With `O=[N+]([O-])c1ccc(-c2cn3c(n2)sc2ccccc23)cc1` the displacement was 7.6%.
In the case of `Fc1ccc(-c2noc(-c3ccc(Cl)cc3)n2)cc1`, the displacement is reported as -6.4%.
Work on `CC(=O)C1=C(O)C(=O)N(CCN(C)C)C1c1cccc([N+](=O)[O-])c1` (stereo unspecified) yielded a displacement of -3.5%.
Compound `CCC(Oc1ccccc1)C(=O)Nc1ccncc1` (stereo unspecified) has a displacement of -10.7%.
For `COc1ccc(N(CC(=O)Nc2ccc(Oc3ccccc3)cc2)S(C)(=O)=O)c(OC)c1`, the displacement was 10.4%.
Work on `COc1ccc(N(C(=O)Nc2ccccc2[N+](=O)[O-])C(C)C2CC2)cc1` (stereo unspecified) yielded a displacement of 5.9%.
In the case of `CN1CCN(C(=O)CCCN2C(=O)/C(=C/c3cccs3)SC2=S)CC1`, the displacement is reported as 2.9%.
In the case of `CC1=C(C(N)=O)C(C2CCCCC2)C(C#N)=C(N)O1` (stereo unspecified), the displacement is reported as -11.7%.
`COCCCN1C(=O)c2cccc3cccc(c23)C1=O` gave a displacement of -5.5%.
Compound `O=C(O)c1ccc(CNC(=O)C2CCCCC2C(=O)O)cc1` (stereo unspecified) has a displacement of -5.1%.
In the case of `COc1ccccc1/C=C1/SC(=O)N(CNc2cccc(Cl)c2)C1=O`, the displacement is reported as 9.1%.
`COc1ccccc1CNC(=O)c1ccc(Cl)c(Cl)c1` showed a displacement of 18.3%.
In the case of `CC1CN(C(=O)c2cccs2)CC(C)O1` (stereo unspecified), the displacement is reported as 3.3%.
Compound `CC1=C(C)CC(C(=O)c2ccc(Br)cc2)C(C(=O)O)C1` (stereo unspecified) has a displacement of -3%.
Work on `O=C1CC(Nc2ccc(F)cc2)C(=O)N1c1ccc(N2CCOCC2)cc1` (stereo unspecified) yielded a displacement of 11.7%.
`Cc1ccc2oc(C(F)F)cc(=O)c2c1` showed a displacement of 16.8%.
Work on `NC(=O)c1c(NC(=O)c2cc3cc(Br)ccc3oc2=O)sc2c1CCCC2` yielded a displacement of -11.9%.
Work on `CC(C(=O)O)N1C(=O)/C(=C/c2ccccc2)SC1=S` (stereo unspecified) yielded a displacement of 2.6%.
For `c1coc(CNc2ncnc3c2oc2ccccc23)c1`, the displacement was 4%.
Work on `Cc1ccc(C)c(NC(=O)CN(c2ccc(F)cc2)S(=O)(=O)c2ccccc2)c1` yielded a displacement of -1.7%.
Work on `CC(=O)c1cccc(NC(=O)COc2cc(C)ccc2C(C)(C)C)c1` yielded a displacement of -10.4%.
`C=CCn1c2ccccc2n2c(C(=O)OCC)c(C)nc12` was tested, and the displacement was -6.3%.
For `CCN(CC)c1ccc(/C=C2/SC(=S)N(Cc3ccccc3)C2=O)c(O)c1`, the displacement was -98.2%.
`CC(=O)Nc1ccc(NS(=O)(=O)c2cccc3c2C(=O)c2ccccc2C3=O)cc1` was tested, and the displacement was -4.4%.
Compound `Clc1ccc(-c2ccc(/C=C\c3nc4ccccc4o3)o2)cc1` has a displacement of 95.3%.
`Oc1c(/C=C2\C=Nc3ccccc32)sc(=S)n1-c1ccc(Cl)cc1` showed a displacement of 6.2%.
`COC(=O)C1C(O)=C(C=NCc2ccccc2)C(=O)CC1(C)C` (stereo unspecified) was tested, and the displacement was 3.2%.
`COC(=O)c1ccc(NC(=O)C2CC(=O)N(c3ccc(C)cc3)C2)cc1` (stereo unspecified) showed a displacement of 0.3%.
Work on `COc1ccc(OC)c(NC(=O)COc2ccccc2C)c1` yielded a displacement of 17.1%.
Compound `CCOc1cccc(N2C(=O)CC(N3CCC(C(N)=O)(N4CCCCC4)CC3)C2=O)c1` (stereo unspecified) has a displacement of -3.8%.
`O=c1c2ccccc2nc(/C=C/c2cccc(Br)c2)n1Cc1ccccc1` gave a displacement of 12.3%.
`COc1cc([N+](=O)[O-])ccc1-c1ccc(/C=C2\C(=O)NC(=O)N(c3ccc(Cl)cc3)C2=O)o1` showed a displacement of 14%.
Compound `Cc1ccc([N+](=O)[O-])cc1NC(=O)CC1Sc2ccccc2NC1=O` (stereo unspecified) has a displacement of 3.4%.
For `O=C(COc1ccccc1[N+](=O)[O-])Nc1ccc2oc(-c3cccc(Br)c3)nc2c1`, the displacement was 18.3%.
`CCCCNCCCCOc1cc(C)c(Cl)c(C)c1` was tested, and the displacement was 14.5%.
